Reference: publication PMC4336329 (PLoS ONE, 2015)
Among all 310,000 compounds or so, about 2,200 (0.71%) showed an effect of 50% or more. The effect is printed as a negative number. The list shows a part of the results.

Each molecule was assayed against human ether-à-go-go-related gene (hERG) potassium channel (human, UniProt Q12809) (assay: primary screen, population patch clamp on CHO cells stably expressing hERG).
Sequence of human ether-à-go-go-related gene (hERG) potassium channel (Q12809 whole entry, looked up): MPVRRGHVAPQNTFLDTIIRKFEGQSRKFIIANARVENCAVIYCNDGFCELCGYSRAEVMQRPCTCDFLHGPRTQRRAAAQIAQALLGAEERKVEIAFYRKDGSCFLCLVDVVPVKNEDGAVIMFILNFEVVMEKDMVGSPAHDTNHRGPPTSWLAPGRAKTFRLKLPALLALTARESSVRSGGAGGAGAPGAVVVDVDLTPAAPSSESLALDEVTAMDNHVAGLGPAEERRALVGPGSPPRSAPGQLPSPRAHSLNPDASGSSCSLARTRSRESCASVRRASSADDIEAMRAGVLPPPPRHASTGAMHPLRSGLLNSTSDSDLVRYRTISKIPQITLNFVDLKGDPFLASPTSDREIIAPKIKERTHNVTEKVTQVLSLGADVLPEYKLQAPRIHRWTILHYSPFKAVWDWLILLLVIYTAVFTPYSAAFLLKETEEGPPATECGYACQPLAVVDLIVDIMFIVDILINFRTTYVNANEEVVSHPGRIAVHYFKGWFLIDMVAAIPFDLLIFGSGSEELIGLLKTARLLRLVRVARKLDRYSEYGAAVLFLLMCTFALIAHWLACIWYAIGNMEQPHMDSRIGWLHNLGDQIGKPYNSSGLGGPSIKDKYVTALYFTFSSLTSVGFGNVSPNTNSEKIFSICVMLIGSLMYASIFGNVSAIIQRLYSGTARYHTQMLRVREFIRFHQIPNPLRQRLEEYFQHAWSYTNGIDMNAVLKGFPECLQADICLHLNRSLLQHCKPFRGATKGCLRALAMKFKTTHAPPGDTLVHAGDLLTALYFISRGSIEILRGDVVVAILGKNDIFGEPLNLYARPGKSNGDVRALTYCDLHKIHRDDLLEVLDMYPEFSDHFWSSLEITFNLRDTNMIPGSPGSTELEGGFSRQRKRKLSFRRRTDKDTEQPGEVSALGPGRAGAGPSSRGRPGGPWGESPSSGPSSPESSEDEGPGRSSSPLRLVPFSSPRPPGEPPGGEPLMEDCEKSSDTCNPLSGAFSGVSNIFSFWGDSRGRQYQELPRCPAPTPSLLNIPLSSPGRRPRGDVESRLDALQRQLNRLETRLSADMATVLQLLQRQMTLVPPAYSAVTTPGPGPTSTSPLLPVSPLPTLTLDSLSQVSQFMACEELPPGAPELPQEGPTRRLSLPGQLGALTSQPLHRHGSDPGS

| SMILES | hERG current change (%, negative = inhibition) at 1uM [%] |
| --- | --- |
| Cc1cc(=O)oc2cc(OCC(=O)N3CCN(C(=O)c4ccco4)CC3)ccc12.Cl | 8.42 |
| COc1ccc(CCCc2nnc(SCC(=O)Nc3cc(C)ccc3C)o2)cc1 | 12 |
| CN(C)CCCN(C(=O)c1ccc(S(=O)(=O)N2CCCCCC2)cc1)c1nc2c(F)cccc2s1.Cl | -5.63 |
| CCCNC(=O)c1cccc(COc2ccccc2OC)c1 | -4.23 |
| CCOc1ccc2oc(C(=O)NCc3ccccc3CN3CCCC3)c(C)c2c1 | -12.2 |
| Cc1ccc(C(CNC(=O)Nc2ccccc2)N2CCN(C)CC2)cc1 (stereo not drawn) | 1.43 |
| COc1ccccc1Oc1nc(-c2ccccc2)cc(C)c1S(C)(=O)=O | 3.89 |
| CCN1CCN(c2cc(C)c3cc(NC(=S)N4CCCC4)ccc3n2)CC1 | 2.21 |
| Cc1ccc(C)c(N2CCN(C(=O)CCS(=O)(=O)c3ccc4c(c3)NC(=O)CO4)CC2)c1 | 7.38 |
| CC(Oc1ccccc1F)C(=O)NNC(=O)c1ccc(F)c(S(=O)(=O)N2CCOCC2)c1 (stereo not drawn) | 9.41 |
| CCC(C)N(C(=O)COC(=O)c1ccccc1SCC(=O)N1CCCC1)C1CCS(=O)(=O)C1 (stereo not drawn) | 11.9 |
| CCOC(=O)c1sc(=S)sc1SCc1cccc(C(F)(F)F)c1 | 15.5 |
| COc1ccc(N2CCN(C(=O)c3ccc4c(c3)NC(=O)C(CSCc3cccc(F)c3)N4)CC2)cc1 (stereo not drawn) | 13.6 |
| CCOc1ccc(NC(=O)C2CC(C)=C(C)CC2C(=O)O)cc1 (stereo not drawn) | -1.62 |
| Oc1ccc(-c2nc3ccccn3c2NCc2ccc3c(c2)OCO3)cc1 | -17.9 |
| COC(=O)C1=CN(Cc2ccc(OC)c(OC)c2)C=C(C(=O)OC)C1c1ccc(F)cc1 | 4.21 |
| C=CCSc1nnc(NC(=O)Cc2ccc(OC)c(OC)c2)s1 | 15.5 |
| CCOc1ccc(S(=O)(=O)N(CC(=O)NN=C2CCN(C)CC2)c2ccc(C)cc2)cc1 | -22.8 |
| Cc1cc(=O)n2nc(N3CCC(C(=O)NCc4cccc(Br)c4)CC3)sc2n1 | 12.3 |
| CCN(CC)CCNC(=O)c1ccc(Cl)c(S(=O)(=O)Nc2ccc(Cl)cc2)c1 | -0.359 |
| CC1=C(C(=O)OC2CCCCC2)C(c2cccnc2)n2nnnc2N1 (stereo not drawn) | 11.7 |

| SMILES | hERG current change (%, negative = inhibition) at 1uM [%] |
| --- | --- |
| CCCn1c(-c2cccc(F)c2)nc2c1c(=O)[nH]c(=O)n2Cc1ccccc1 | 16.1 |
| CC(=O)c1cccc(CN2CCC(CO)(CCCc3ccccc3)CC2)c1 | -7.89 |
| Cc1ccc(NC(=O)CCN2CCN(C/C=C/c3ccccc3)CC2)cc1.Cl | -86.3 |
| NC(=O)c1ccccc1OCc1nc2ccccc2s1 | 11.3 |
| Cc1ccccc1N1CCN(CCC(=O)Nc2ccc(F)cc2)CC1 | -13.8 |
| COc1ccc(OC)c(N(CC(=O)N2CCCC2)S(=O)(=O)c2ccc(OC)c(OC)c2)c1 | 9.52 |
| COc1ccc(C(=O)/C=C/NCc2ccc(F)cc2)cc1OC | 11.6 |
| COc1cccc(-c2cc(C(=O)Nc3cc(OC)c(OC)c(OC)c3)no2)c1 | 6.25 |
| O=C1c2ccccc2C(=O)N1CCN1CCCCC1 | -0.145 |
| CCCCN(C(=O)c1ccc(OC)c([N+](=O)[O-])c1)c1c(N)n(CCC)c(=O)[nH]c1=O | 11.1 |
| O=C(CSc1nn(-c2ccc(F)cc2)c(=S)s1)NC1CCS(=O)(=O)C1 (stereo not drawn) | 5.02 |
| CC(C)CCn1c(CN2CC(C)OC(C)C2)nc2c1c(=O)n(C)c(=O)n2C (stereo not drawn) | 15.3 |
| CCOC(=O)N1CCN(CC(c2ccccc2)c2ccccc2)CC1 | 13.8 |
| NC(=O)c1nsc(C(=O)N(Cc2ccccc2F)C(C(=O)NCC2CCCO2)c2ccc(F)cc2)c1N (stereo not drawn) | -1.94 |
| Cc1cc(Nc2nc3ccccc3nc2Cl)n(-c2ccc([N+](=O)[O-])cc2)n1 | -1.05 |
| Cc1ccc(S(=O)(=O)N2CC(C(=O)O)=CC[C@H]2c2ccc3c(c2)OCO3)cc1 | 7.09 |
| COc1ccc(-c2nnc(Nc3ccc(OC)c(C(=O)N4CCCCC4)c3)c3ccccc23)cc1 | 12.4 |
| O=C1CSC2=NCN(c3ccc4c(c3)OCO4)CN12 | -5.06 |
| COc1cc2c(cc1OC)C(C(=O)N1CCCC1)C(c1ccccc1F)N(C)C2=O (stereo not drawn) | 15.6 |
| CCOc1ccc(-n2cnc3scc(-c4ccc(OC)c(OC)c4)c3c2=O)cc1 | 10.9 |
| C=CCNc1nc2ccccc2nc1NS(=O)(=O)c1cccs1 | -2.29 |

| SMILES | hERG current change (%, negative = inhibition) at 1uM [%] |
| --- | --- |
| COc1ccc(N(CC(=O)NCCSCc2ccco2)S(=O)(=O)c2ccc(C)cc2)cc1 | 0.98 |
| CCCc1cnc(N2CCN(C(=O)c3ccc(OC)cc3)CC2)nc1 | 1.83 |
| CCNCc1cc([N+](=O)[O-])ccc1OCC.Cl | 1.65 |
| CN(CC(=O)Nc1cccc2c1CCCC2)S(=O)(=O)c1ccccc1 | -0.639 |
| CC(=O)N1CCCc2cc(S(=O)(=O)N3CCCC(C(=O)Nc4cccc(F)c4)C3)ccc21 (stereo not drawn) | 12 |
| COc1ccccc1CNC(=O)Cc1csc(NC(=O)Nc2ccccc2OC)n1 | 2.57 |
| CCCCNC(=O)Cn1cnc2sc(C(=O)OCC)c(C)c2c1=O | 8.3 |
| NC1=NC[C@@H](Cc2ccc(O)cc2)N1CCc1cccc2ccccc12 | 10.6 |
| O=C(NN=C1CCCC1)c1ccccc1OCCOc1ccccc1 | 5.04 |
| Cc1ccc(N(CC(=O)N2CCOCC2)S(C)(=O)=O)cc1 | 18.3 |
| Cn1c2ccccc2c2c(C(=O)N3CCC4(CC3)OCCO4)cn(C3CCCCC3)c(=O)c21 | 10.8 |
| COC(/C=C/Nc1ccc(C)cc1)=C(C#N)C#N | -10.6 |
| Cc1ccc(C2=NN(S(C)(=O)=O)C(c3ccc4c(c3)OCO4)C2)cc1 (stereo not drawn) | -1.85 |
| CCOCCCn1c(=S)[nH]c2cc(C(=O)NC3CCCCC3C)ccc2c1=O (stereo not drawn) | 13.5 |
| CN(C(=O)C12CC3CC(CC(C3)C1)C2)C1(C)CCS(=O)(=O)C1 (stereo not drawn) | -2.04 |
| Cc1cccnc1CN1CCN(Cc2nc(Cc3cccc(F)c3)no2)CC1 | 6.2 |
| O=C(CCNS(=O)(=O)c1cccs1)Nc1ccccc1F | 8.89 |
| Nc1nnc(SCC(=O)N2CCN(c3ccccc3)CC2)n1-c1ccccc1 | 15.2 |
| COc1ccccc1NC(=O)c1cc(N)cc(C(=O)Nc2ccccc2OC)c1 | -11.9 |
| CC(=O)c1ccc(Sc2nnc(C)s2)c([N+](=O)[O-])c1 | 12 |
| CCC(=O)Nc1cccc(C(=O)c2ccccc2)c1 | 9.33 |

| SMILES | hERG current change (%, negative = inhibition) at 1uM [%] |
| --- | --- |
| Cc1cc2ccccn2c1C(=O)c1cccc(F)c1 | 5.35 |
| COc1ccc(-c2c[n+]3c(n2-c2c(C)n(C)n(-c4ccccc4)c2=O)CCCCC3)cc1.[Br-] | 14.5 |
| NS(=O)(=O)c1cccc(NC(=O)C(Cc2ccccc2)NC(=O)c2ccccc2)c1 (stereo not drawn) | 10.1 |
| Cc1cc(=O)n2c3c(sc2n1)C(=O)N(Cc1ccccc1)C3=O | 7.16 |
| COc1ccccc1OCC(=O)NNC(=O)C1CCN(c2ncnc3sc(C)c(C)c23)CC1 | 10.4 |
| CCOC(=O)N1CCN(C(=O)Nc2ccc3nc(-c4ccccn4)c(-c4ccccn4)nc3c2)CC1 | 8.51 |
| CC(C)(C)C(Cn1ccnc1)NC(=O)c1ccc2nc(C3CC3)oc2c1 (stereo not drawn) | -7.48 |
| Cc1csc(NC(=O)CSc2nc3ccccc3c3c2CCCC3)n1 | 6.69 |
| CCC1=NN(C(=O)Cc2ccc([N+](=O)[O-])cc2)C(O)(c2ccncc2)C1 (stereo not drawn) | 6.82 |
| CC1CCCCC1NC(=O)CCS(=O)(=O)c1ccc2c(c1)NC(=O)CS2 (stereo not drawn) | 8.71 |
| CCCNC(=O)c1ccc(N2CCC3(CC2)CC(c2cccc(Br)c2)=NO3)c(NC(=O)c2ccc(Br)cc2)c1 | 5.67 |
| Br.COc1ccccc1C1=Nn2c(COc3ccccc3)nnc2SC1 | 16.6 |
| Cc1cc(NC(=O)c2ccccc2F)on1 | 9.42 |
| NC(=O)C1=CN(Cc2ccc(Cl)cc2)CCC1C(F)(F)F (stereo not drawn) | 7.51 |
| CC(=O)N1CCc2cc(S(=O)(=O)NC(CC(C)C)C(=O)N3CCn4c3nc3ccccc34)ccc21 (stereo not drawn) | -16.3 |
| Cc1ccc(S(=O)(=O)CCC(=O)OCC(=O)NC(N)=O)cc1 | 13.7 |
| COc1ccc(CC(=O)N[C@@H](CCSC)C(=O)N2CCC3(CC2)NCCc2[nH]cnc23)cc1 | 8.35 |
| CSc1nc(-c2ccco2)cc(-c2ccccc2)c1C#N | 9.54 |
| CCC(C)c1ccccc1N1CC(C(=O)N(C)CC(=O)Nc2cccc(F)c2)CC1=O (stereo not drawn) | 8.69 |
| CCCCN(CCCNC(=O)C1CCCN(S(=O)(=O)CC)C1)Cc1ccccc1 (stereo not drawn) | -5.14 |
| O=C(Nc1ccc(S(=O)(=O)Nc2ncccn2)cc1)C1CC(=O)N(c2ccc(Cl)cc2)C1 (stereo not drawn) | 12.3 |
